Source: US20070128190A1 (GLENMARK PHARMACEUTICALS S A, published 2007)

Target: T1, TMC-2206
T1 construct: murine IgG1/κ secreted by hybridoma BHA2.1; labelled with Eu-N1-ITC where used as tracer; also called BHA2.1
Experiment: fusion protein competing Eu-TMC-2206 off α2β1-coated plate
Procedure: Wells in a 96 well microtiter plate were coated with platelet α2β1-integrin (custom-coated with human platelet α2β1 by GTI Inc., Wis.) and then blocked with nonfat milk. […] After concentration in prewashed MicroSep concentrators (30-kDa cutoff; Pall Life Sciences at 9500 rpm (7000×g) in a JA-20 rotor (Beckman Instruments, Inc.) for 20 minutes at 4° C.), antibodies were adjusted to 4.0 mg/mL with PBS containing a final concentration of 100 mM NaHCO₃, pH 9.3. The mAb/bicarbonate mixture (0.250 mL) was gently mixed into a vial containing 0.2 mg N¹-(p-isothiocyanatobenzyl)-diethylenetriamine-N¹,N²,N³N³-tetraacetic acid chelated with Eu³⁺ (Eu-N1-ITC; Perkin Elmer Life Sciences) and reacted overnight at 4° C. without stirring. Each labeled antibody mixture was applied to a separate PD-10 column (GE Biosciences, Piscataway, N.J.) pre-equilibrated with Running Buffer (50 mM Tris, pH 7.4 and 138 mM NaCl). Fractions (0.5 mL) were collected and assayed for total protein (Bradford reagent; Bio-Rad Laboratories, Hercules, Calif.) using a SpectraMax 384 absorbance plate reader and for europium after 1:10.000 dilution in DELFIA Enhancement Solution (Perkin-Elmer) by time-resolved fluorescence (TRF) using a Victor2 multi-label plate reader (Perkin Elmer). […]

T1 sequence (VH, as listed by the source, chain 1 of 2): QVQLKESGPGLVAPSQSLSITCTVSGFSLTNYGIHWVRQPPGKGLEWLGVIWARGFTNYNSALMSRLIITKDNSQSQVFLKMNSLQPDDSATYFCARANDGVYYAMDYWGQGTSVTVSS
T1 sequence (VL, as listed by the source, chain 2 of 2): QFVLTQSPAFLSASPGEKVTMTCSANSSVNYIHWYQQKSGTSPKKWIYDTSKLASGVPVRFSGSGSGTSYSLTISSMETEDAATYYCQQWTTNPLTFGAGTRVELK

B1: GST-hα2 I domain K78E (other)
chain: [sequence of about 200 residues omitted]GSSPDFQLSASFSPATQPCPSLIDVVVVCDESNSIYPWDAVKNFLEKFVQGLDIGPTKTQVGLIQYANNPRVVFNLNTYETKEEMIVATSQTSQYGGDLTNTFGAIQYARKYAYSAASGGRRSATKVMVVVTDGESHDGSMLKAVIDQCNHDNILRFGIAVLGYLNRNALDTKNLIKEIKAIASIPTERYFFNVSDEAALLEKAGTLGEQIFSIEGTVEFIVTD
notes: same construct as m41
Ki: 0.51 nM
